Consider 48 compounds from PubChem BioAssay AID1508623 (National Center for Advancing Translational Sciences (NCATS), 2021).

About 450 (0.94%) of roughly 48,000 compounds were called active. About 19% were inconclusive and are not listed. The call rests on the fitted dose curve; in most records, active means well fitted inhibition curve with a large enough effect; inconclusive means small, poorly fitted or top-dose-only effect; inactive means no such curve, though single readings can be large or run the other way. Some of the results follow.
Potency means the concentration at half of the fitted maximal effect.

This test can be described thus: Primary qHTS for Identification of Small Molecule Inhibitors of Huntingtin Promoter Activity. Further: nearly all actives have a fitted effect of over 50% in size. The conditions noted are these: HEK293 HTT promoter firefly luciferase reporter (activity 0% = vehicle and -100% = no light), 24 h; series mostly up to 57.5 µM; activity change, negative = inhibition: at the top concentration. The method in brief:
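Luminescence was read after Dual-Glo reagent and a 10 min room-temperature incubation. Values were normalized to vehicle (0% activity) and zero RLU (-100% activity). Reporter HEK293 cells had been exposed to compounds (up to 57.5 uM final) for 24 h.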
Background: In qHTS, concentration-response curves come from the screen itself.
Turning to `CCOc1ccc(C(=O)Nc2cc3c(cc2N2CCCC2)n(C)c(=O)c(=O)n3C)cc1OCC`, the “activity change, negative = inhibition” value is inactive: 0.165%.

Turning to `CSc1ncc2c(n1)-c1ccccc1N(Cc1ccccc1)S2(=O)=O`, the “activity change, negative = inhibition” value is inactive: -21.1%. Still for that read-out and setting: the value for `Cc1ccc2[nH]c3c(=O)n(CC(=O)Nc4ccc(Br)cc4C)ncc3c2c1` was inactive: -1.6%; that for `Fc1ccc(Nc2nc3ccccc3n3cnnc23)c(F)c1` was inactive: 5.08%; that for `CCSc1nc2ccccc2c(OCc2ccccc2Cl)c1C(=O)OC` was inactive: -17.2%. Regarding `COc1ccc(Oc2nc3c(c(=O)n(Cc4ccc(Br)cc4)c(=O)n3C)n2C)cc1`, the “activity change, negative = inhibition” value was inactive: 2.76%. Still for that read-out and setting: the value for `O=C(c1ccc(F)cc1)n1nc(-c2cccnc2)nc1NCc1ccccc1` was inactive: -26.2%; that for `COc1ccc(-n2ccnc(NCCc3ccccc3)c2=O)cc1OC` was inactive: -44.6%.

As for `CC(C)(C)c1ccc(C(=O)Nc2c(C(=O)c3ccc(F)cc3)oc3ccccc23)cc1`, the “activity change, negative = inhibition” value was inactive: 0.435%. As for `Cc1nn(C(C)C(=O)Nc2ccccc2C(F)(F)F)c(=O)c2c1sc1ccccc12` (stereo not drawn), the “activity change, negative = inhibition” value is inactive: -1.7%. The same measure, in the same setting: the same measure for `Cc1nc2nc(CNC(=O)c3cccc(F)c3)nn2c(C)c1CCC(=O)Nc1cccc(Cl)c1`: inactive: 5.71%.

Turning to `Cc1ccc(N(CC(C)C)S(=O)(=O)c2nnc(NC(=O)C(C)C)s2)cc1`, the “activity change, negative = inhibition” value was inactive: 1.94%. Same read-out and setting: the same measure for `COc1ccccc1CNC(=O)COCc1cc(-c2cccs2)on1`: inactive: -26.8%; for `COc1ccc(Cl)cc1NC(=O)c1cnc2sc(N3CCOCC3)nn2c1=O`: inactive: -2%; for `Cc1ccc(CNC(=O)c2cnc3c(-c4ccc(F)cc4)c(C)nn3c2C)o1`: inactive: -21.7%. Still for that read-out and setting: the same measure for `CN1CCN(CCNC(=O)c2cnn(-c3ccc(Cl)cc3)c2C2CCN(C(=O)OC(C)(C)C)CC2)CC1`: inactive: -8.16%; for `CCOc1ccc(-c2nonc2NC(=O)c2oc3ccc(CC)cc3c2C)cc1`: inactive: 1.76%; for `CCN(C(=O)C1CCN(S(=O)(=O)c2c(C)noc2/C=C/c2ccc(C)cc2)CC1)c1cccc(C)c1`: inactive: -5.45%. In the case of `CCC(=O)N1CCc2cc(S(=O)(=O)NC(Cc3ccccc3)C(=O)O)ccc21` (stereo not drawn), the “activity change, negative = inhibition” value was inactive: -0.131%.

Take `COc1ccc(NC(=O)CSc2nc3ccccc3c(=O)n2CCC(=O)NC2CCCCC2)c(OC)c1`: the “activity change, negative = inhibition” value is inactive: 0%. Consider `O=C(CCCCCn1c(=O)c2sccc2n(Cc2ccccc2Cl)c1=O)NCc1ccc2c(c1)OCO2`, for which the “activity change, negative = inhibition” value is inactive: -2.73%. On the same count and under the same terms, the value for `Cc1ccc(S(=O)(=O)Nc2ccc3nc(-c4cccc(Cl)c4)oc3c2)cc1` was inactive: -21%; that for `COc1ccc(CCNC(=O)C(C)n2nc(C)c3sc4ccccc4c3c2=O)c(OC)c1` (stereo not drawn) was inactive: -12.9%. On to `O=C(O)CCC(=O)Nc1ccc(S(=O)(=O)Nc2nccs2)cc1`, for which the “activity change, negative = inhibition” value was inactive: -8.42%. On the same count and under the same terms, the value for `Cc1ccc(-c2nc(CS(=O)CC(=O)NCCc3ccc(Cl)cc3)c(C)o2)cc1` (stereo not drawn) was inactive: -25.9%.

Turning to `COc1cc(NC(=O)C2Cc3ccccc3N2C(=O)c2ccccc2)cc(OC)c1` (stereo not drawn), the “activity change, negative = inhibition” value was inactive: -8.81%.

For `CCOc1ccc(-n2nc(CO)c(C(=O)NCC(C)O)n2)cc1` (stereo not drawn), the “activity change, negative = inhibition” value was inactive: 1.98%. On the same count and under the same terms, the same measure for `COc1ccc(OCCn2nnc3sc4c(c3c2=O)CCCC4)cc1`: inactive: 8.33%; for `COc1ccc(N2CCN(c3ncnc4c3nnn4C)CC2)cc1`: inactive: -23.9%. As to `COC(=O)c1cc2sccc2n1CC(=O)Nc1cc(Cl)ccc1OC`, the Potency was active: 28.2 µM.

On to `CCOC(=O)C1CCN(c2ncnc3c2c(-c2ccccc2)cn3-c2ccc(Cl)cc2)CC1`, for which the “activity change, negative = inhibition” value is inactive: -11.8%.

`CCOC(=O)c1c(C)[nH]c(C)c1S(=O)(=O)NCC(=O)NCc1ccccc1C`: the “activity change, negative = inhibition” value is inactive: -14.8%. Still for that read-out and setting: the value for `COc1cnc(NS(=O)(=O)c2ccc(N)cc2)nc1` was “inactive”. For `CCOc1ccccc1CNS(=O)(=O)c1cc(-c2onc(C)c2C)ccc1OC`, the “activity change, negative = inhibition” value is inactive: -22.5%. On the same count and under the same terms, the value for `Cc1ccc(NC(=O)Cn2c(=O)n(CCCCC(=O)NCc3ccc4c(c3)OCO4)c(=O)c3ccccc32)cc1` was inactive: -18.4%; that for `CCC(=O)N1c2ccccc2CC1C(=O)N1CCN(c2ccccc2F)CC1` (stereo not drawn) was inactive: 4.03%. Same read-out and setting: the value for `N#Cc1c(C(F)(F)F)cc(-c2cccs2)nc1SCc1ccccc1F` was inactive: -21.1%.

With `Clc1ccccc1CSc1nc(NCCc2ccccc2)c2ccccc2n1`, the “activity change, negative = inhibition” value was inactive: -6.16%. The same measure, in the same setting: the value for `CCOc1ccccc1Nc1sc(C(=O)c2ccc(Cl)cc2)c(N)c1S(=O)(=O)c1ccccc1` was inactive: -18.4%. For `O=C(O)CCn1c2c(c3ccccc31)C[C@H](NS(=O)(=O)c1ccc(F)cc1)CC2`, the activity change, negative = inhibition result was “inactive”. On the same count and under the same terms, the value for `O=C(CSc1ncc2c(n1)-c1ccccc1N(Cc1ccc(Cl)cc1)S2(=O)=O)c1ccccc1` was inactive: -15.6%; that for `CCN(Cc1ccccc1)C(=O)Cn1ncc2c(=O)oc3ccc(C)cc3c21` was inactive: 1.1%. For the compound `Cc1cccc(N2CCN(C(=O)c3ccc4c(c3)N(Cc3cccc(Cl)c3)C(=O)c3ccccc3S4(=O)=O)CC2)c1C`, the “activity change, negative = inhibition” value is inactive: -12.1%. Same read-out and setting: the value for `CCOc1ccc(NC(=O)CCc2nnc3n(C)c(=O)c4sccc4n23)cc1` was inactive: -6.03%; that for `COc1ccccc1NC(=O)Cn1ccn(-c2cc(C)cc(C)c2)c(=O)c1=O` was inactive: -5.68%; that for `Cc1ccc(S(=O)(=O)C(CNS(=O)(=O)c2ccc(F)c(C(F)(F)F)c2)c2ccco2)cc1` (stereo not drawn) was inactive: -10.9%.

For `CC(CNC(=O)C1CCN(C(=O)c2cc3sccc3n2C)CC1)c1ccccc1` (stereo not drawn), the “activity change, negative = inhibition” value is inactive: -14.8%. On the same count and under the same terms, the value for `CCOc1ccc(CNCc2c(C(=O)O)n(Cc3ccccc3C)c3cc(OC)ccc23)cc1OC` was inactive: -15.4%.
